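Interpolation was linear, between the two tested concentrations surrounding the appropriate level; five concentrations were tested over 48 hours in 96-well plates. At the GI50, growth is halved. Definition used: TGI = concentration required for complete inhibition of growth.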

The source of these data is PubChem BioAssay (NCI).

For the experiment, the system named is NCI-H322M lung. The experiment can be described thus: inhibition of tumour cell growth, NCI panel, 48 h.
With `Cn1cc(-c2cc3nc(-c4c[nH]c5ccc(Br)cc45)cc(N)n3n2)c2ccccc21`, the GI50 was 1.36 µM and the TGI turned out to be 2.96 µM.

In the case of `COP(=O)(CC(F)(F)C(F)(F)F)OC`, the GI50 is 16.6 µM and the TGI was 33.1 µM.

For the molecule `COc1ccc2c(c1)c(-c1cc3nc(-c4cn(C)c5ncccc45)cc(N)n3n1)cn2C`, the GI50 is 2.92 µM and the TGI was determined as 13.2 µM.
